The source of these data is article PMC9878616 (Protein Science : A Publication of the Protein Society, 2023).

This data set deals with the molecule itself. Put plainly: SEC + other: DLS/SLS.

Broadly, the stoichiometry N is the number of molecules, sites or subunits per partner or assembly.

B1: N-terminal GST-like domain of P. berghei tRip (tRip-N) (domain or fragment, UniProt A0A509ARF0 1-202, looked up)
chain: MGCTLNLVENDIKSDILKLALDFIKTNIVENDDNVVFPEIKYGQKISYEHNKKTYKEFFCSLYAIIDTYNCYSQFFCENEDKVSESEEFIFNLASDKFKLKPLDMKHLNDILRERSYIVSDKHASLVDIFYFCCVYKILKPMTAKEKVEYYHICRWYIHLQETLICDFVKLHKLDIRSGVESLLNSGIVTCTNEKASNEQVGS
Consider B1, for which the “stoichiometry N” value is 2.
